In ChEMBL document CHEMBL4888484, “Replenishing the malaria drug discovery pipeline: Screening and hit evaluation of the MMV Hit Generation Library 1 (HGL1) against asexual blood stage Plasmodium falciparum ,using a nano luciferase reporter read-out” (2022):
Among all 150,000 compounds or so, about 540 (0.36%) showed an effect of 50% or more. Some of the results follow.

tested on: Plasmodium falciparum; experiment: Primary screen in NF54 nanoGlo assay, in single point, at 2uM, 72h; a lower Z score goes with more inhibition; type: functional, Erythrocyte; settings: timepoint 72 hour

| Compound | % Inhibition | Z score |
| --- | --- | --- |
| Cc1cc(CNc2[nH]nnc2C)c(C)s1 | -45% | 5.23 |
| COc1ccc(-c2cc3n(n2)CCC(=O)N3Cc2ccc(C(=O)NCCN3CCCCC3)cc2)cc1 | 10% | -1.2 |
| O=C(COc1ccc2c(C(F)(F)F)cc(=O)n(CC3CCC3)c2c1)Nc1ccccc1F | 14% | -2.03 |
| Cc1cc(Cn2ccnc2-c2cccc3nonc23)on1 | 6% | -0.98 |
| O=C(C#Cc1ccccc1)N1CCC(OC[C@H]2CCCO2)CC1 | 4% | -0.62 |
| Cc1ccc(S(=O)(=O)Nc2cc(C(=O)O)ccc2N2CCC(N3CCCCC3)CC2)c(C)c1 | -2% | 0.2 |
| CCC(CC)C(=O)N[C@@H]1COCC[C@@H]1Oc1cccc(F)c1 | 5% | -0.69 |
| COc1ccc(NC(=O)N[C@H]2CCN(c3cc(N4CCCC4)cnn3)C2)c(C)c1 | 1% | -0.19 |
| CC(C)(C)CC(=O)Nc1cnc(N2CCCCC2)nc1 | -21% | 1.87 |
| O=C(Cn1c(=O)c2sccc2n(CC(=O)Nc2cccc(Cl)c2Cl)c1=O)NCCc1ccccc1 | -7% | 0.85 |
| CC(C)N1CC2(CN(C(=O)c3ccccc3)C[C@@H]3C[C@@H](O)CN32)C1 | 29% | -3.33 |
| Cn1c(NCC(C)(C)c2ccncc2)nc2cnccc21 | 3% | -0.66 |
| CN=C(NCCC(C)C)N1CCC(OC(C)(C)C)CC1 | -1% | 0.28 |
| C[C@H](NC(=O)N1CCN(C(CO)c2ccc(Cl)cc2)CC1)c1cccnc1 (stereo partly specified) | -2% | 0.3 |
| N#CCC(=O)NC1(C(F)F)CCCCC1 | -5% | 0.49 |
| c1ccc(-c2noc(CCN3CCOC[C@@H]3CC3CC3)n2)cc1 | -6% | 1.14 |
| COc1ccc(CCNC(=O)c2sc(=S)n(Cc3ccco3)c2N)cc1OC | -8% | 1.13 |
| COCC1(CNS(=O)(=O)N2CCOCC2)CCCC1 | -4% | 0.38 |
| COc1nc(-c2cccc(F)c2)n(-c2cccc(NC(=O)Nc3ccc(F)cc3F)c2)n1 | -1% | 0.13 |
| CCn1cc(Cl)c(C(=O)N2CCCC[C@H]2c2nc(-c3ccncc3)no2)n1 | -11% | 1.45 |
| O=C(CC1CC2CCC1C2)Nc1ccc[n+]([O-])c1 (stereo unspecified) | -7% | 0.92 |
| Cc1cc(C(=O)NCc2nc(C(C)C)no2)cc(C)n1 | -2% | 0.34 |
| Cc1csc(NC(=O)[C@H](C)N2CCC3(CC2)C(=O)NCCCN3C)n1 | -3% | 0.52 |
